{"source": "the supplement of paper PMC9588766", "note": "In all, about 1,900 compounds were measured (“cell viability of compound + 1 nM pemigatinib relative to pemigatinib-only (DMSO) wells”: median about 0.95, lowest 2% from about 0.22 on). Some of the results follow.", "data": [{"system": "PDC-DUC18828", "assay": "cell viability of compound + 1 nM pemigatinib relative to pemigatinib-only (DMSO) wells (fraction); PDC-DUC18828 is a patient-derived cholangiocarcinoma cell line; higher = less growth inhibition", "conditions": "first compound 1 µM; pemigatinib concentration 1 nM; 72 h", "protocol": "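Selleck Bioactive library screen in the patient-derived FGFR2 fusion-positive ICC cell line PDC-DUC18828 (500 cells/well). Each compound was tested at 1 uM with 1 nM pemigatinib, in triplicate, for 72 h. Viability was read by CellTiter-Glo and normalised to plate DMSO controls. Value is the paper's averaged normalised viability.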", "values": [{"molecule": "CCN1C[C@H](C)n2c(c(O)c3c(=O)n(Cc4ccc(F)c(Cl)c4)nc(C(=O)NC)c32)C1=O", "note": "+ CCN1C(=O)N(c2c(F)c(OC)cc(OC)c2F)Cc2cnc3[nH]c(CN4CCOCC4)cc3c21 [pemigatinib]", "cell viability": 0.987}, {"molecule": "CC(=O)c1c(C)c2cnc(Nc3ccc(N4CCNCC4)cn3)nc2n(C2CCCC2)c1=O", "note": "+ CCN1C(=O)N(c2c(F)c(OC)cc(OC)c2F)Cc2cnc3[nH]c(CN4CCOCC4)cc3c21 [pemigatinib]", "cell viability": 0.793}, {"molecule": "O=C(O)c1cc(/N=N/c2ccc(S(=O)(=O)Nc3ccccn3)cc2)ccc1O", "note": "[Sulfasalazine] + CCN1C(=O)N(c2c(F)c(OC)cc(OC)c2F)Cc2cnc3[nH]c(CN4CCOCC4)cc3c21 [pemigatinib]", "cell viability": 1.06}, {"molecule": "NC(=O)c1ccc(I)c([N+](=O)[O-])c1", "note": "[Iniparib (BSI-201)] + CCN1C(=O)N(c2c(F)c(OC)cc(OC)c2F)Cc2cnc3[nH]c(CN4CCOCC4)cc3c21 [pemigatinib]", "cell viability": 1}, {"molecule": "COc1ccc(C2=N[C@@H](c3ccc(Cl)cc3)[C@@H](c3ccc(Cl)cc3)N2C(=O)N2CCNC(=O)C2)c(OC(C)C)c1", "note": "[Nutlin-3] + CCN1C(=O)N(c2c(F)c(OC)cc(OC)c2F)Cc2cnc3[nH]c(CN4CCOCC4)cc3c21 [pemigatinib]", "cell viability": 1.02}, {"molecule": "COc1ccc(C2=N[C@@H](c3ccc(Cl)cc3)[C@@H](c3ccc(Cl)cc3)N2C(=O)N2CCNC(=O)C2)c(OC(C)C)c1", "note": "[Nutlin-3a] + CCN1C(=O)N(c2c(F)c(OC)cc(OC)c2F)Cc2cnc3[nH]c(CN4CCOCC4)cc3c21 [pemigatinib]", "cell viability": 0.952}, {"molecule": "CN/C(=N\\CCSCc1nc[nH]c1C)NC#N", "note": "[Cimetidine] + CCN1C(=O)N(c2c(F)c(OC)cc(OC)c2F)Cc2cnc3[nH]c(CN4CCOCC4)cc3c21 [pemigatinib]", "cell viability": 0.945}, {"molecule": "C/C(=C\\C(=O)OCCCCCCCCC(=O)O)C[C@@H]1OC[C@H](C[C@@H]2O[C@H]2[C@@H](C)[C@H](C)O)[C@@H](O)[C@H]1O", "note": "[Mupirocin] + CCN1C(=O)N(c2c(F)c(OC)cc(OC)c2F)Cc2cnc3[nH]c(CN4CCOCC4)cc3c21 [pemigatinib]", "cell viability": 0.95}, {"molecule": "O=c1oc2cc(O)ccc2s1", "note": "[Tioxolone] + CCN1C(=O)N(c2c(F)c(OC)cc(OC)c2F)Cc2cnc3[nH]c(CN4CCOCC4)cc3c21 [pemigatinib]", "cell viability": 1.01}, {"molecule": "COc1cc2ncnc(Nc3cccc(Cl)c3)c2cc1OC", "note": "[AG-1478 (Tyrphostin AG-1478)] + CCN1C(=O)N(c2c(F)c(OC)cc(OC)c2F)Cc2cnc3[nH]c(CN4CCOCC4)cc3c21 [pemigatinib]", "cell viability": 0.816}]}]}
